# PubChem BioAssay (Tox21)
# Values joined by “and” are separate entries in the source; they are usually repeats but may differ in a detail not shown here. Identical values can stand only once. Inconclusive results, whose numbers are uncertain, are shown with a selection of clear calls. For part of these data: Where the call is inconclusive, the potency comes from a doubtful curve fit. Active and inactive are the calls of the source. Calls follow the shape of the dose curve; as a rule, active = well fitted curve in the direction sought with a large enough effect in the repeat runs; inconclusive = weak or mixed curves; inactive = no such curve, though single readings can be large; an effect the other way counts as inactive or inconclusive.
# Key:
# [1] = A CellTox Green Cytotoxicity Assay to monitor cytotoxicity in HepG2 cells - 32 hour (AID 1224883); also: nearly all actives have a fitted effect of over 50% in size; also: potency is read from the fitted curve at half-maximal effect
# Procedure, shortened: (§1)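 Fluorescent DNA-binding dye, 600 HepG2 cells/well, 5 h preincubation then compound in DMSO; same plates read at 0–40 h, 37 C.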
# [2] = A CellTox Green Cytotoxicity Assay to monitor cytotoxicity in HepG2 cells - 0 hour (AID 1224882); also: nearly all actives have a fitted effect of over 35% in size; also: potency is read from the fitted curve at half-maximal effect
# Procedure, shortened: as §1
# [3] = qHTS RealTime-Glo MT Cell Viability Assay in HEK293 cells - 8 hour (AID 1224887); also: nearly all actives have a fitted effect of over 50% in size; also: potency is read from the fitted curve at half-maximal effect
# Procedure, shortened: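 Measured as luminescence from the same continuously cultured HEK293 wells at successive time points (0, 8, 16, 24, 32, 40 h) after compound addition. Reagent present from seeding; dosing at 5 h; incubation 37 C.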
# [4] = A CellTox Green Cytotoxicity Assay to monitor cytotoxicity in HepG2 cells - 8 hour (AID 1224890); also: potency is read from the fitted curve at half-maximal effect; nearly all actives have a fitted effect of over 45% in size
# Procedure, shortened: as §1
# [5] = target: Estrogen receptor (Homo sapiens) (UniProt P03372); assay: qHTS assay to identify small molecule antagonists of the estrogen receptor alpha (ER-alpha) signaling pathway using the BG1 cell line in the presence of 0.1 nM 17-beta-estradiol (AID 1259244); also: nearly all actives have a fitted effect of over 50% in size; also: potency is read from the fitted curve at half-maximal effect
# Procedure, shortened: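 Seeding of stripped-serum-adapted VM7Luc4E2 cells, 24 h attachment, compound transfer, then 0.1 nM final 17beta-estradiol; after 22 h incubation, ONE-Glo reagent and luminescence reading.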
# [6] = A CellTox Green Cytotoxicity Assay to monitor cytotoxicity in HEK293 cells - 32 hour (AID 1224881); also: nearly all actives have a fitted effect of over 40% in size; also: potency is read from the fitted curve at half-maximal effect
# Procedure, shortened: (§2)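 Homogeneous no-lysis format: HEK293 cell suspension mixed with CellTox Green reagent, seeded, incubated 5 h at 37 C/5% CO2, then dosed by pintool with compound in DMSO.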
# [7] = qHTS assay to identify small molecule agonists of the sonic hedgehog signaling (Shh) pathway - cell viability counter screen (AID 1259366); also: nearly all actives have a fitted effect of over 50% in size
# Procedure, shortened: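 NIH/3T3-derived 3T3 Gli1-Luc cells (stable Gli1-responsive firefly luciferase reporter) were seeded, rested 4 hr at 37 C/5% CO2, then exposed to compounds in DMSO for 24 hr; viability was read by CellTiter-Fluor fluorescence in the same wells.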
# [8] = qHTS assay to identify small molecule antagonists of the sonic hedgehog signaling (Shh) pathway - cell viability counter screen (AID 1259367); also: nearly all actives have a fitted effect of over 55% in size; also: potency is read from the fitted curve at half-maximal effect
# Procedure, shortened: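 Tox21 library chemicals were tested on a Gli1-Luc NIH/3T3 clone (2,000 cells/well) stimulated by conditioned medium; viability was quantified as fluorescence from CellTiter-Fluor reagent added at 23 hr.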
# [9] = A CellTox Green Cytotoxicity Assay to monitor cytotoxicity in HEK293 cells - 16 hour (AID 1224888); also: nearly all actives have a fitted effect of over 35% in size; also: potency is read from the fitted curve at half-maximal effect
# Procedure, shortened: as §2
# [10] = qHTS RealTime-Glo MT Cell Viability Assay in HEK293 cells - 24 hour (AID 1224886); also: nearly all actives have a fitted effect of over 50% in size; also: potency is read from the fitted curve at half-maximal effect
# Procedure, shortened: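 Tox21 10K qHTS, HEK293, 600 cells/well, RealTime-Glo reagent co-dispensed with cells; 5 h preincubation, compound by pintool, 37 C, luminescence at 0–40 h.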
# [11] = qHTS RealTime-Glo MT Cell Viability Assay in HepG2 cells - 0 hour (AID 1224889)
# Procedure, shortened: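 Cells + NanoLuc/prosubstrate dispensed (600 cells/well) → 5 h at 37 C/5% CO2 → compounds in DMSO transferred → 40 h incubation at 37 C, luminescence read at 0, 8, 16, 24, 32, 40 h.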
# [12] = qHTS assay to identify small molecule antagonists of the estrogen receptor alpha (ER-alpha) signaling pathway using the BG1 cell line in the presence of 0.1 nM 17-beta-estradiol - cell viability counter screen (AID 1259241); also: nearly all actives have a fitted effect of over 40% in size; also: potency is read from the fitted curve at half-maximal effect
# Procedure, shortened: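 VM7Luc4E2 cells (endogenous ER-alpha, 4×ERE-luciferase), hormone-starved 5 days in charcoal-stripped FBS, were treated with compounds plus 0.1 nM 17beta-estradiol for 22 hr at 37C; viability read in same wells as CellTiter-Fluor live-cell protease fluorescence.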
# [13] = qHTS assay to identify small molecule HDAC inhibitors (AID 1259364);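 also: wild-type HCT-116 cells with endogenous class I/II HDAC activity; potency is read from the fitted curve at half-maximal effect; nearly all actives have a fitted effect of over 45% in size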
# Procedure, shortened: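 After a 2 hr compound incubation (37C, 5% CO2), HCT-116 cells seeded at 1,500/well the day before received HDAC-Glo reagent; signal read as luminescence after 30 min at room temperature.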
# [14] = A CellTox Green Cytotoxicity Assay to monitor cytotoxicity in HEK293 cells - 8 hour (AID 1224884); also: potency is read from the fitted curve at half-maximal effect; nearly all actives have a fitted effect of over 35% in size
# Procedure, shortened: as §2
# Tags tell the direction and shape of the fitted curve.
# UniProt P03372, sequence (P03372 whole entry, looked up): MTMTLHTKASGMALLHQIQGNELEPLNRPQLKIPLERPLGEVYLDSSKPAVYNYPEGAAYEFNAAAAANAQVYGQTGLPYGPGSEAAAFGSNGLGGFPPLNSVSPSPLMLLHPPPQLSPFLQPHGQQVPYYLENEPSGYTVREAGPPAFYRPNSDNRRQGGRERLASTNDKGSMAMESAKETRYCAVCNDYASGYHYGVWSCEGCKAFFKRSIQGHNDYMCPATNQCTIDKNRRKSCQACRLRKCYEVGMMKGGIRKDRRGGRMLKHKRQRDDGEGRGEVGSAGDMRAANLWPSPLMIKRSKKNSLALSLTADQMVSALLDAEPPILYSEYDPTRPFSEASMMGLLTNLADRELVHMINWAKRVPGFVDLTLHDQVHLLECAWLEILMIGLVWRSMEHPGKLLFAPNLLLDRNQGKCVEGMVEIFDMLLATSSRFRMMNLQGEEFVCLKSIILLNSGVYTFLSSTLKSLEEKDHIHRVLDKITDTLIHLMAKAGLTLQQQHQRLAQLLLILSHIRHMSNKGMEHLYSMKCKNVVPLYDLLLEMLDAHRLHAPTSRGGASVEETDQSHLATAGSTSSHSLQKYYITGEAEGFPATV
smiles,measurement,setting,value
Nc1ccn([C@@H]2O[C@H](CO)[C@@H](O)[C@@H]2O)c(=O)n1,Potency,[1],inactive
ClCCOCCOCCCl,Potency,[2],inactive
O=S1(=O)c2cccc3cccc(c23)N1CCCN1CCN(c2ccc(F)cc2)CC1,Potency,[2],"inconclusive: 26.8 µM [activator, single point]"
same,Potency,[3],inactive
same,Potency,[4],"inconclusive: 26.8 µM [activator, partial curve, poor fit]"
same,Potency,[5],"inconclusive: 26.6 µM [inhibitor, single point]"
CCCCc1ccc2nc(NC(=O)OC)[nH]c2c1,Potency,[6],inactive
same,Potency,[7],inactive
same,Potency,[8],"inconclusive: 0.473 µM [cytotoxic, full curve]"
NCCNCCNCCN,Potency,[2],"inconclusive: 1.07 µM [activator, single point]"
same,Potency,[9],"inconclusive: 1.92 µM [activator, single point]"
CCCCC(CC)COC(=O)CS (centres undefined),Potency,[2],"inconclusive: 54.9 µM [activator, partial curve, poor fit]"
same,Potency,[1],"inconclusive: 54.9 µM [activator, partial curve, poor fit]"
same,Potency,[10],"inconclusive: 19.5 µM [cytotoxic, partial curve]"
same,Potency,[4],"inconclusive: 54.9 µM [activator, partial curve, poor fit]"
Cc1ccc(S)cc1,Potency,[1],active: 17.4 µM
O=C(O)Cc1cccc(-c2cc(CCCCCCc3ccc(O[C@H]4O[C@H](CO)[C@@H](O)[C@H](O)[C@@H]4O)c(-c4cccc(CC(=O)O)c4)c3)ccc2O[C@H]2O[C@H](CO)[C@@H](O)[C@H](O)[C@@H]2O)c1,Potency,[2],"inconclusive: 0.301 µM [activator, single point]"
same,Potency,[1],"inconclusive: 0.301 µM [activator, partial curve, poor fit]"
same,Potency,[11],"inconclusive: 0.301 µM [rising, single point]"
c1ccc(OCc2ccc(CCCN3CCOCC3)cc2)cc1,Potency,[2],"inconclusive: 19 µM [activator, partial curve]"
same,Potency,[1],"inconclusive: 19 µM [activator, partial curve]"
same,Potency,[10],"inconclusive: 19 µM [cytotoxic, partial curve]"
same,Potency,[3],"inconclusive: 21.3 µM [cytotoxic, partial curve]"
same,Potency,[4],"inconclusive: 19 µM [activator, partial curve]"
same,Potency,[12],"inconclusive: 33.5 µM [cytotoxic, partial curve, poor fit]"
same,Potency,[5],"inconclusive: 33.5 µM [inhibitor, single point]"
same,Potency,[13],"inconclusive: 26.6 µM [inhibitor, partial curve]"
CC1CCC2CC1C2(C)C (centres undefined),Potency,[1],inactive
COC(=O)/C=C\C(=O)OC,Potency,[1],"inconclusive: 61.6 µM [activator, single point]"
CC(C)COC(=O)/C=C/c1ccccc1,Potency,[6],"inconclusive: 21.9 µM [activator, single point]"
same,Potency,[7],inactive
CCCC(=O)c1ccccc1,Potency,[2],inactive
same,Potency,[12],inactive
COC(=O)C(C)O (centres undefined),Potency,[6],inactive
same,Potency,[8],inactive
CCCCCC(N)=O,Potency,[1],inactive
CC(C)CC(=O)CC(C)CC(C)C (centres undefined),Potency,[1],"inactive and inconclusive: 24.5 µM [activator, full curve, poor fit]"
CC(C)c1ccc2oc3nc(N)c(C(=O)O)cc3c(=O)c2c1,Potency,[1],inactive
O=C(NCC1CN(c2ccc(N3CCOCC3=O)cc2)C(=O)O1)c1ccc(Cl)s1 (centres undefined),Potency,[2],"inconclusive: 23.9 µM [activator, single point]"
same,Potency,[1],"inconclusive: 23.9 µM [activator, single point]"
same,Potency,[10],inactive
same,Potency,[9],inactive
same,Potency,[4],"inconclusive: 26.8 µM [activator, single point]"
same,Potency,[5],"inconclusive: 15 µM [inhibitor, partial curve, poor fit]"
same,Potency,[13],"inconclusive: 23.7 µM [inhibitor, partial curve, poor fit]"
c1ccc(Oc2ccccc2)cc1,Potency,[6],"inconclusive: 56.6 µM [activator, single point]"
same,Potency,[8],inactive
N#Cc1ccccc1,Potency,[1],"inconclusive: 0.136 µM [activator, single point]"
CCc1cccc(N(C)C(N)=Nc2cccc3ccccc23)c1,Potency,[1],"inconclusive: 23.9 µM [activator, partial curve, poor fit]"
CCCCCCCCCCCCCCCCN,Potency,[2],active: 21.3 µM
same,Potency,[14],active: 19 µM
same,Potency,[9],active: 19 µM
same,Potency,[4],active: 21.3 µM
same,Potency,[5],inactive
